Measured values as given in the supplement of paper PMC8813932.
Counter-ions that a name gives are not always drawn. ± gives the standard deviation of the averaged measurements. The list shows a part of the results. Single values are uncertain, as repeats are few or missing.

Experiments:
Assay in all cases: log2 surviving fraction relative to plate median (drug vs vehicle, or drug+dl922-947 vs dl922-947 alone); ovarian cancer lines: OVCAR4 is platinum-sensitive while Ov4Cis resists cisplatin and Ov4Carbo carboplatin; higher = more cell survival
Settings in all cases: compound concentration: 10 uM, 192 h
OVCAR4 = test system: OVCAR4
Ov4Carbo = test system: Ov4Carbo
Ov4Cis = test system: Ov4Cis
[1] = dl922-947 oncolytic adenovirus co-treatment: MOI 10
[2] = dl922-947 oncolytic adenovirus co-treatment: none

| Compound | log2 surviving fraction (OVCAR4; [1]) | log2 surviving fraction (OVCAR4; [2]) | log2 surviving fraction (Ov4Carbo; [1]) | log2 surviving fraction (Ov4Carbo; [2]) | log2 surviving fraction (Ov4Cis; [1]) | log2 surviving fraction (Ov4Cis; [2]) |
| --- | --- | --- | --- | --- | --- | --- |
| COc1cccc(N(C)C(=S)Oc2ccc3c(c2)CCCC3)n1 [Liranaftate] | 0.224 ± 0.3 | -0.325 ± 0.42 | 0.334 | -0.269 | -0.679 | -0.62 |
| Cc1ccc(C(=O)C(C)CN2CCCCC2)cc1 (centres undefined) [Tolperisone HCl] | 0.00404 ± 0.16 | -0.421 ± 0.58 | -0.216 | -0.0823 | 0.427 | -0.456 |
| Nc1ncn([C@H]2C[C@H](O)[C@@H](CO)O2)c(=O)n1 [Decitabine] | -3.01 ± 0.42 | -3.84 ± 4.8 | -1.62 | 0.651 | -3.21 | -5.4 |
| C[C@@H](O)[C@H]1C(=O)N2C(C(=O)[O-])=C(SC3Cn4cnc[n+]4C3)[C@H](C)[C@H]12 (some centres undefined) [Biapenem] | -0.242 ± 0.65 | -0.43 ± 0.25 | -0.209 | -0.99 | -0.681 | -0.283 |
| COCCCC/C(=N\OCCN)c1ccc(C(F)(F)F)cc1 [Fluvoxamine maleate] | -0.946 ± 0.24 | -0.286 ± 0.22 | -1.96 | -0.807 | -2.47 | -0.58 |
| C=C[C@H]1CN2CC[C@H]1C[C@H]2[C@H](O)c1ccnc2ccc(OC)cc12 [Quinine hydrochloride dihydrate] | -0.113 ± 0.23 | -0.485 ± 0.7 | 0.812 | -1.94 | -0.441 | -0.664 |
| CC(C(=O)O)c1cccc(Oc2ccccc2)c1 (centres undefined) [Fenoprofen calcium hydrate] | -0.278 ± 0.16 | -0.449 ± 0.28 | 0.774 | 0.919 | -0.248 | 0.219 |
| C[C@]12CCC(=O)C=C1CC[C@@H]1[C@@H]2[C@@H](O)C[C@@]2(C)[C@H]1CC[C@]2(O)C(=O)CO [Hydrocortisone (Cortisol)] | 0.401 ± 0.14 | 0.619 ± 0.14 | -0.482 | -1.88 | 0.299 | 0.292 |
| CCN(CC)CCOC(=O)C(c1ccccc1)c1ccccc1 [Adiphenine HCl] | 0.0723 ± 0.67 | -0.119 ± 0.79 | -0.227 | 0.161 | 0.144 | 0.67 |
| CN(C)c1nc(N(C)C)nc(N(C)C)n1 [Altretamine (Hexalen)] | -0.189 ± 0.28 | -0.919 ± 0.91 | -0.00391 | 1.31 | -0.612 | 0.311 |
| COc1ccc(/C=C/C(=O)Nc2ccccc2C(=O)O)cc1OC | 0.332 ± 0.9 | 0.159 ± 0.97 | -0.13 | -0.0279 | -0.124 | 0.978 |
| O=C1CC[C@@]2(O)[C@H]3Cc4ccc(O)c5c4[C@@]2(CCN3CC2CC2)[C@H]1O5 [Naltrexone HCl] | 0.246 ± 0.48 | 0.00235 ± 0.46 | -0.214 | -0.21 | 0.333 | 0.0711 |
| O=S(=O)(O)CCS [Mesna (Uromitexan, Mesnex)] | -0.387 ± 0.71 | 0.886 ± 0.68 | -0.361 | 0.52 | -0.0337 | -0.429 |
| CNC(=O)Oc1ccc2c(c1)[C@]1(C)CCN(C)[C@@H]1N2C [Physostigmine Salicylate] | 0.243 ± 0.25 | -0.982 ± 1.7 | 1.51 | -0.515 | -1.01 | 0.409 |
| C=CCN1CC[C@]23c4c5ccc(O)c4O[C@H]2C(=O)CC[C@@]3(O)[C@H]1C5 [Naloxone HCl] | 0.845 ± 0.033 | 0.0025 ± 0.073 | -0.0153 | 1.37 | -0.195 | 1.17 |
| C=C1/C(=C\C=C2/CCC[C@]3(C)[C@@H]([C@H](C)CCCC(C)C)CC[C@@H]23)C[C@@H](O)C[C@@H]1O [Alfacalcidol] | -0.218 ± 0.6 | -1.08 ± 0.73 | -0.336 | -1.67 | -0.379 | -0.169 |
| NCCCCCC(=O)O [Aminocaproic acid (Amicar)] | -0.205 ± 0.78 | 0.191 ± 0.095 | 0.302 | -0.374 | -0.271 | 0.229 |
| CC#CCn1c(N2CCC[C@@H](N)C2)nc2c1c(=O)n(Cc1nc(C)c3ccccc3n1)c(=O)n2C [Linagliptin (BI-1356)] | -1.17 ± 0.4 | -0.706 ± 1.3 | 0.635 | 0.792 | -0.887 | -1.42 |
| C[C@]12CCC3=C4CCC(=O)C=C4CC[C@H]3[C@@H]1CC[C@@]2(O)CC#N [Dienogest] | 1.56 ± 0.78 | 2.53 ± 2.6 | 1.24 | 2.68 | 0.852 | 0.908 |
| CN(C)CCc1c[nH]c2ccc(CS(=O)(=O)N3CCCC3)cc12 [Almotriptan malate (Axert)] | -0.261 ± 0.35 | 0.636 ± 1 | -0.522 | 0.233 | 0.00403 | -0.657 |
| CN(C)CC/C=C1/c2ccccc2Sc2ccc(Cl)cc21 [Chlorprothixene] | 0.282 ± 1.6 | 0.2532 ± 0.0022 | -2.72 | 0.752 | -0.765 | 0.653 |
| NC1CCN(c2c(F)cc3c(=O)c(C(=O)O)cn(C4CC4)c3c2Cl)C1 (centres undefined) | 0.55 ± 0.25 | 0.53 ± 0.2 | -0.317 | -0.0705 | 0.268 | 0.0344 |
| CNC[C@H](O)c1cccc(O)c1 [Phenylephrine HCl] | 0.33 ± 0.043 | -0.221 ± 1 | 0.219 | 0.259 | -1.36 | 0.473 |
| O=P(O)(O)C(O)(Cc1cccnc1)P(=O)(O)O [Risedronate sodium] | 0.204 ± 0.3 | 0.473 ± 1.2 | -0.0678 | 2.72 | 1.07 | 0.742 |
| CCN(CC)C(=O)/C(C#N)=C/c1cc(O)c(O)c([N+](=O)[O-])c1 [Entacapone] | 0.326 ± 1.6 | -0.3 ± 0.5 | -0.338 | 0.146 | -0.519 | -2.06 |
| C[N+](C)(C)CCCCCC[N+](C)(C)C [Hexamethonium bromide] | -0.12 ± 0.2 | 0.654 ± 0.97 | -2.07 | 0.0464 | -0.214 | 0.383 |
| COCCOC(=O)C1=C(C)NC(C)=C(C(=O)OC(C)C)C1c1cccc([N+](=O)[O-])c1 (centres undefined) [Nimodipine (Nimotop)] | -1.22 ± 0.23 | -0.313 ± 0.53 | 0.817 | 0.0115 | -0.553 | -1.16 |
| CC(=O)OCC(=O)[C@H]1CC[C@H]2[C@@H]3CCC4=CC(=O)CC[C@]4(C)[C@H]3CC[C@]12C [Deoxycorticosterone acetate] | 0.54 ± 0.18 | 0.327 ± 0.11 | 0.256 | 0.703 | 0.631 | 0.976 |
| COc1ccc2c(c1)C(=O)N(CCc1ccc(S(=O)(=O)NC(=O)NC3CCCCC3)cc1)C(=O)C2(C)C [Gliquidone] | 0.217 ± 0.72 | -0.481 ± 0.12 | 0.137 | -0.736 | 0.375 | -0.0965 |
